From PubChem BioAssay AID504832 (National Center for Advancing Translational Sciences (NCATS), 2011)
Out of some 310,000 compounds screened, about 18,000 (5.8%) were called active. The shares of active, inactive and inconclusive entries below differ from those in the screen. The call rests on the fitted dose curve; in most records, active means well fitted inhibition curve with a large enough effect; inconclusive means small, poorly fitted or top-dose-only effect, or another doubt; inactive means no such curve, though single readings can be large or run the other way. Potencies of inconclusive entries are left out as doubtful fits. A structure can be active in one record and inactive in another.

assay: Primary qHTS for delayed death inhibitors of the malarial parasite plastid, 48 hour incubation; details: P. falciparum luciferase growth in erythrocytes; series mostly up to 28.7 µM; activity change, negative = inhibition: at the top concentration
How it was run: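 Luciferase-expressing parasites in RBCs, 2% Hct / 0.1% parasitemia final; RPMI 1640 + 0.5% Albumax; 37 C, 5% CO2, one generation; luminescence read-out, lower signal = inhibition.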
On the % scale 0 is the no-effect control and ±100 the full control effect; potency means the concentration at half of the fitted maximal effect; tags describe the fitted curve by direction and shape.

| Compound | Potency | activity change, negative = inhibition |
| --- | --- | --- |
| CC(NC(=O)c1cc(F)c(F)c(F)c1F)c1ccc(-n2ccnc2)cc1 (centres undefined) | inconclusive [inhibitor, partial curve, poor fit] | – |
| Cc1ccccc1NC1=C/C(=N\S(=O)(=O)c2ccc(C(=O)O)cc2)c2ccccc2C1=O | active: 2.62 µM | – |
| Cc1ccc(C(=O)NCc2ccc(F)cc2)cc1NC1=NC2CS(=O)(=O)CC2S1 (centres undefined) | – | inactive: 30.7% |
| NC(=O)CS(=O)(=O)c1nc2ccccc2n1Cc1ccccc1F | inconclusive [inhibitor, single point] | – |
| CCOC(=O)CSc1nc(N2CCOCC2)c2c(c1C#N)CC(C(C)C)OC2 (centres undefined) | inconclusive [inhibitor, single point] | – |
| Nn1cc(-c2ccccc2)nc1SCC(=O)N1CCN(S(=O)(=O)c2ccccc2)CC1 | inconclusive [inhibitor, single point] | – |
| Cc1cc(C)cc(N(CC(=O)NC2CCCC2)C(=O)CCC(=O)Nc2cc(C)ccn2)c1 | inconclusive [inhibitor, partial curve, poor fit] | – |
| CC(C)(C)c1ccc(C(=O)NC(=S)Nc2sc3c(c2C#N)CCC3)cc1 | – | inactive: 3.52% |
| CCc1nc2ccc(C(=O)Nc3nnc(C)s3)cc2nc1CC | – | inactive: -17.6% |
| CCN1C(=O)NC2=C(C(=O)c3ccccc32)C1c1ccccc1F (centres undefined) | inconclusive [inhibitor, partial curve, poor fit] | – |
| NCCc1nnc(SCC(=O)c2ccc(Cl)cc2)o1 | – | inactive: 18.8% |
| FC(F)(F)c1ccccc1NC(=S)NN=C1CCCCCC1 | inconclusive [inhibitor, single point] | – |
| Cc1ccc(-c2csc3ncnc(OCC(=O)NC(=O)NCc4ccco4)c23)cc1 | inconclusive [inhibitor, single point] | – |
| CC(C)(C)N(Cc1ccccc1)C(=O)c1cc2ccccc2o1 | inconclusive [inhibitor, single point] | – |
| Cc1cc(C)n(Cc2ccc(C(=O)NN)o2)n1 | inconclusive [inhibitor, partial curve] | – |
| CCc1cccc(NS(=O)(=O)c2ccc3c(c2)oc(=O)n3C)c1 | – | inactive: 1.51% |
| Cc1ccccc1NC(=O)CCC(=O)N/N=C/c1cc([N+](=O)[O-])ccc1O | inconclusive [inhibitor, single point] | – |
| Cc1c2cnn(CC(=O)NCc3ccccn3)c(=O)c2c(C)n1Cc1ccc(Cl)cc1 | inconclusive [inhibitor, single point] | – |
| Cc1ccc(CN2CCC(CNC(=O)c3ccc(NC(=O)C4=CSCCO4)cc3)CC2)cc1 | inconclusive [inhibitor, single point] | – |
| N#Cc1c2c(c(Nc3ccc(O)cc3)n3c1nc1ccccc13)CCC2 | inconclusive [inhibitor, partial curve] | – |
| O=C(Nc1ccc(N2CCCC2)cc1)c1cc(Br)ccc1Cl | inconclusive [inhibitor, single point] | – |
| CCCCSc1nnc([C@@H]2CCCN2C(=O)OC(C)(C)C)o1 | inconclusive [inhibitor, partial curve] | – |
| Cc1ccc(S(=O)(=O)N2CCC(C(=O)NNC(=O)c3ccccc3O)CC2)cc1C | – | inactive: 0.417% |
| Cc1ccc(C(=O)NCCCNC(=O)c2cccnc2)cc1 | – | inactive: -0.0958% |
| CCOc1ccc(CCNC(=O)CCn2nc(C)c3c(C)n(-c4ccccc4)nc3c2=O)cc1 | inconclusive [inhibitor, partial curve] | – |

| Compound | Potency | activity change, negative = inhibition |
| --- | --- | --- |
| NC(N)=Nc1nc(-c2ccccc2)c2cc(Cl)ccc2n1 | inconclusive [inhibitor, single point] | – |
| CC(C)CN(C(=O)COC(=O)C12CC3CC(CC(C3)C1)C2)c1c(N)n(Cc2ccccc2)c(=O)[nH]c1=O | active: 1.17 µM | – |
| O=C(/C=C/c1ccccc1)Oc1cccc2cccnc12 | active: 4.65 µM | – |
| CCOC(=O)Cc1csc(NC(=O)CSc2ncnc3c2cnn3-c2ccc(OC)cc2)n1 | active: 9.28 µM | – |
| O=C(Nc1ccccc1NC(=O)NC1CCCCC1)NC1CCCCC1 | – | inactive: 32% |
| Cc1cc(=O)n(-c2ccccc2)n1C | – | inactive: 10.5% |
| Cc1ccc(-c2csc(NC(=O)c3ccc(-c4ccccc4)cc3)n2)o1 | inconclusive [inhibitor, partial curve] | – |
| CC/C(O)=C(\C#N)c1nnc2n1CCCCC2 | – | inactive: 0.512% |
| Nc1ncnc(Oc2cccc3cccnc23)c1[N+](=O)[O-] | inconclusive [inhibitor, single point] | – |
| CN(C)CCCN(C(=O)c1ccc(C(=O)c2ccccc2)cc1)c1nc2c(F)cccc2s1 | inconclusive [inhibitor, single point] | – |
| CCCNC(=O)C1CCN(c2ccc(S(=O)(=O)N3CCOCC3)cc2Cl)CC1 | active: 13.1 µM | – |
| O=C(CN1C(=O)C(=O)N(C2CCCC2)C1=O)Nc1ccc([N+](=O)[O-])cc1 | – | inactive: -29.7% |
| CC1(C)CC(=O)C=C(C(=O)N2CCCC(CCC(=O)NCc3ccccc3F)C2)O1 (centres undefined) | inconclusive [inhibitor, full curve, poor fit] | – |
| Cc1nn(C)c(C)c1/C=C1/CC2C3CC=C4CC(O)CCC4(C)C3CCC2(C)C1=O (centres undefined) | inconclusive [inhibitor, single point] | – |
| Cn1ncc(C#N)c1NC(=O)c1nn2cccnc2c1Cl | – | inactive: 5.12% |
| CCCOC(=O)C1=C(C)NC(=O)NC1c1cccc2ccccc12 (centres undefined) | inconclusive [inhibitor, single point] | – |
| C=CCn1c(O)c(N=NC(=S)Nc2ccccc2C)c2cc(S(=O)(=O)N3CCOCC3)ccc21 | active: 2.94 µM | – |
| Cc1ccc(F)c([C@H]2[C@@H]3C=CCC[C@@]3(C)C(=O)N2Cc2ccccc2)c1 | inconclusive [inhibitor, single point] | – |
| CCC(CC)C(=O)Nc1ccc(Sc2ccc([N+](=O)[O-])cc2)cc1 | active: 7.38 µM | – |
| COc1ccc(OCCOc2ccc(S(=O)(=O)N3CCCC3)cc2[N+](=O)[O-])cc1 | inconclusive [inhibitor, partial curve] | – |
| Cc1ccc(NC(=O)CCC(=O)Nc2nnc(C3CCCCC3)s2)cc1 | – | inactive: 26.6% |
| Clc1ccc2nc(N3CCCCC3)[nH]c2c1 | – | inactive: 176% |
| COc1ccccc1CNC(=O)C[n+]1ccccc1 | – | inactive: 2.59% |
| CCCn1c(SC(C(=O)Nc2cc(C)ccc2OC)c2ccccc2)nc2ccccc2c1=O (centres undefined) | inconclusive [inhibitor, partial curve, poor fit] | – |
| O=C(NCCc1ccccc1)c1ccccc1NS(=O)(=O)N1CCCC1 | – | inactive: 49.9% |

| Compound | Potency | activity change, negative = inhibition |
| --- | --- | --- |
| CC(C)CN1CN(Cc2ccco2)CNC1=S | – | inactive: 0.441% |
| Cc1c(NC(=O)c2ccc3c4c(cccc24)CC3)c(=O)n(-c2ccccc2)n1C | – | inactive: -27.1% |
| COC(c1ccccc1)(c1ccccc1)C(Oc1nc(C)cc(C)n1)C(=O)O (centres undefined) | active: 11.7 µM | – |
| O=C(NCc1ccccn1)c1nc(Cn2cc([N+](=O)[O-])cn2)no1 | inconclusive [inhibitor, single point] | – |
| COc1cc(Cl)c(C)cc1NC(=O)COc1cc(C)nc(C(C)C)n1 | inconclusive [inhibitor, partial curve, poor fit] | – |
| COc1ccc(Cl)cc1NC(=O)CN(C)C(=O)c1cc2ccccc2cc1OC | inconclusive [inhibitor, single point] | – |
| Cc1cc(NC(=O)CSc2nc(-c3ccco3)cc(C(F)(F)F)n2)no1 | – | inactive: -23.4% |
| CCCCC(=O)NS(=O)(=O)c1ccc(NS(C)(=O)=O)cc1 | – | inactive: -0.49% |
| Cc1cc(C)c(S(=O)(=O)NC2CC(C)(C)NC(C)(C)C2)cc1C | – | inactive: 6.25% |
| CCN(C(=O)CSc1nc2cc(C(=O)OC)ccc2c(=O)n1Cc1ccco1)c1cccc(C)c1 | active: 4.65 µM | – |
| CCCN(C(=O)c1cc(-c2ccco2)nc2ccccc12)c1c(N)n(Cc2ccccc2)c(=O)[nH]c1=O | inconclusive [inhibitor, single point] | – |
| CCOc1ccc2oc(C(=O)OCC(=O)NCc3ccc(OC)cc3)c(C)c2c1 | inconclusive [inhibitor, single point] | – |
| Cc1c(O)c(CN2CCCC2)cc2c1oc(=O)c1ccccc12 | active: 1.47 µM | – |
| O=C(NC1CCCc2ccccc21)C1CCN(c2nnc(-n3cccc3)s2)CC1 (centres undefined) | inconclusive [inhibitor, partial curve] | – |
| CCCCC(=O)NC(=S)Nc1ccc(Cl)c(C(=O)O)c1 | – | inactive: 16.2% |
| O=C(Nc1nnc(Cc2ccccc2)s1)c1ccccc1 | – | inactive: 84.5% |
| CCCCn1c(O)c(C(C)=NC(Cc2c[nH]c3ccccc23)C(=O)OC)c(=O)[nH]c1=O (centres undefined) | inconclusive [inhibitor, partial curve, poor fit] | – |
| c1ccc(C2=Nn3c(nnc3-c3ccco3)SC2)cc1 | – | inactive: -5.93% |
| CNC(=O)/C(C#N)=C/c1c(N2CCCCCC2)nc2c(C)cccn2c1=O | inconclusive [inhibitor, partial curve, poor fit] | – |
| COc1ccc(CN2CCC(CO)(CCOc3ccccc3)CC2)c(OC)c1C | active: 3.7 µM | – |
| COc1ccc(OC)c(NC(=O)C2CCC(CNc3c(N4CCOCC4)c(=O)c3=O)CC2)c1 (centres undefined) | – | inactive: 1.75% |
| Cc1nnc(SC(C)C(=O)Nc2ccc(S(=O)(=O)NC3CCCCC3)cc2)s1 (centres undefined) | inconclusive [inhibitor, single point] | – |
| Nc1nonc1C(=O)N/N=C/c1cc2c(cc1[N+](=O)[O-])OCO2 | – | inactive: 13.7% |
| Cc1cc(C)cc(C(=O)N2CCC(CCC(=O)NC3CC3)CC2)c1 | inconclusive [inhibitor, single point] | – |
